The whole screen tested about 150,000 compounds, of which about 540 (0.36%) showed an effect of 50% or more. This is one part of the list.
Test system: Plasmodium falciparum
Assay: Primary screen in NF54 nanoGlo assay, in single point, at 2uM, 72h; a lower Z score goes with more inhibition
Format: functional, Erythrocyte
Details: timepoint 72 hour

Row | SMILES | % Inhibition [%] | Z score
1 | O=C(Cc1ccc(Cl)cc1)Nc1ccc(N2CCN(C(=O)c3ccco3)CC2)c(Cl)c1 | -11 | 1.24
2 | Cc1n[nH]c(C)c1CCC(=O)N1C[C@H](C(C)C)[C@@H](N(C)C)C1 | -9 | 1.2
3 | CC(NS(C)(=O)=O)C(C)c1ccccc1C(F)(F)F (stereo not drawn) | 0 | 0.06
4 | Cc1cc(CC(=O)N2C[C@H]3CC[C@@H](C2)N(Cc2c(C)noc2C)C3=O)on1 | 2 | -0.23
5 | Cc1cc(-n2cnnc2)ncc1-c1cccc2c1OCC2 | -5 | 0.67
6 | Cc1cccc(C(=O)NC[C@H](C(=O)O)C2CCCCC2)n1 | -10 | 1.95
7 | CN(c1ccc(NC(=O)[C@@H](c2cccnc2)N(C)C)cc1F)C1CCCCC1 | -4 | 0.49
8 | Cc1oc(-c2ccc3ccccc3c2)nc1CN(C)CCCO | 2 | -0.23
9 | O=C(NCCc1ccc(F)cc1)c1cc(O)ncn1 | -11 | 1.84
10 | COc1cccc(C(=O)N[C@H]2CCc3[nH]cnc3C2)c1 | -6 | 0.87
11 | CC(=O)NS(=O)(=O)CCC1CCCC1 | -6 | 0.63
12 | COC1(c2nccn2C)CN(S(=O)(=O)c2ccccc2F)C1 | -7 | 0.86
13 | O=C(CCc1ccncc1)Nc1ncccc1Br | 0 | -0.03
14 | Cc1cc(C)n(Cc2nc(Cn3cc(Br)cn3)no2)n1 | -11 | 1.75
15 | COCCCN1C(=O)C2C(C)NC3(C(=O)Nc4c(Cl)cccc43)C2C1=O (stereo not drawn) | -14 | 1.85
16 | Cc1nc(-c2ccccc2)cc(N2CCN(CCc3ccccc3)CC2)n1 | 0 | 0
17 | Cc1[nH]cnc1CNC(=O)c1sccc1Cl | -9 | 1.62
18 | Oc1cc(-c2ncc(C(F)(F)F)cc2Cl)cc2c1OCCNC2 | -11 | 1.71
19 | CC[C@@H](C(=O)NCc1ccc(OC(C)C)cc1)n1ccc2cc(S(=O)(=O)N3CCCCC3)ccc21 | 34 | -4.98
20 | Cc1ccc2c(c1)N(C)C(=O)c1cc(NS(=O)(=O)c3ccc(Cl)cc3)ccc1O2 | -7 | 0.85
21 | COCCc1noc(CCCc2c[nH]c3ccccc23)n1 | -4 | 0.7

Row | SMILES | % Inhibition [%] | Z score
22 | O=C(c1cnn2c1OCCC2)N1CCc2nc[nH]c2C12CCC2 | -4 | 0.53
23 | Clc1cccc(C2CC(N[C@H]3CCc4cn[nH]c4C3)C2)c1 (stereo partly drawn) | -7 | 1.35
24 | COc1ccc(-c2ccc(N3CCCN(C(=O)CN(C(=O)C4CCC4)C4CC4)CC3)nn2)cc1 | -11 | 2.28
25 | CCCc1noc(CNC2(C(=O)OC)CCC(C)CC2)n1 (stereo not drawn) | -6 | 0.75
26 | O=C(NC1CCCCC1)C(=O)c1ccc[nH]1 | 6 | -0.55
27 | Cc1nsc2ncc(C(=O)N3CCOCC3)c(N3CCC(C(=O)Nc4ccccc4C(F)(F)F)CC3)c12 | -2 | 0.4
28 | CCC(=O)N1CCCN(S(=O)(=O)C(C)C)CC1 | -1 | 0.1
29 | Cc1cn(CCNC(=O)Cc2nc(C)sc2C)nn1 | 2 | -0.42
30 | c1ccc(CN2CC[C@H](c3nc(-c4cnccn4)no3)C2)cc1 | -7 | 1.31
31 | O=C(Nc1ccccc1-c1ccccc1)c1ccc(-n2cnnn2)cc1 | 3 | -0.48
32 | Cc1cncc(C(=O)Oc2ccc(OCc3cnn(C)c3)cc2)c1 | -4 | 0.35
33 | Cc1nc(CCNC(=O)N[C@@](C)(CO)C2CCCCC2)cs1 | -16 | 1.85
34 | COC(=O)c1cc(C(=O)N2CC3CCCC3C2)ccn1 (stereo not drawn) | -4 | 0.71
35 | Cc1oc(C)c(C(=O)Nc2nc(-c3cccc4ccccc34)cs2)c1Br | -16 | 1.63
36 | O=C1Nc2ccc(-c3cccc(C(F)(F)F)c3)cc2C(=O)N2CCN(C(=O)C3CCNCC3)C[C@H]12 | -2 | 0.28
37 | Cc1sc(S(=O)(=O)N2CCCC2)cc1NC(=O)c1ccc(F)c(F)c1 | -2 | 0.3
38 | COc1cc2c(cc1OC)[C@@H](c1c(F)cccc1Cl)N(C(=O)COc1ccccc1)CC2 | 11 | -1.55
39 | Cc1ccc(-c2ccccc2CN2C[C@@H](CN(C)C)C[C@H](CO)C2)o1 | -11 | 1.14
40 | COc1ccc(OC)c([C@H](C)NC(=O)c2cccc3nccn23)c1 | -7 | 0.75
41 | COc1ccc(CCN2C(=O)[C@H](CC(C)C)NC23CCN(C(=O)c2cccc(F)c2)CC3)cc1OC | -12 | 1.2
42 | Cc1ccc(-c2cc3c4c(C)n(C)c(C)c4c(C)nn3c2)o1 | 4 | -0.51

Row | SMILES | % Inhibition [%] | Z score
43 | O=C(COc1ccccc1)Nc1ccc(N2CCN(C(=O)c3cccc(F)c3)CC2)nc1 | -20 | 2.72
44 | CCc1nc(N(C)CC[C@H](C)N2CCCC2)no1 | -12 | 1.34
45 | CCOCCCC(=O)Nc1cc(Br)c(F)cc1OC | -7 | 1.02
46 | CNc1ccc(C)cc1CN[C@@H]1c2ccccc2OC[C@@H]1CO | 2 | -0.23
47 | Cc1n[nH]cc1CN(C)C(=O)COCC(F)(F)C(F)F | 8 | -1.23
48 | Cc1nc2c(c(NC[C@H](O)C(N)=O)n1)CCCC2 | 4 | -0.55
49 | Cc1[nH]n(C(=N)N)c(=O)c1Cc1ccccc1 | -13 | 2.44
50 | O=C(NCCc1ccccn1)c1ccc(Nc2c(Oc3ccccc3)cnn(Cc3ccccc3)c2=O)cc1 | 3 | -0.51
51 | Cc1nn(C)c(C)c1CC(=O)N1CCN(c2ccccn2)CC1 | -5 | 0.67
52 | CC(C)N1CCN2C(=O)c3ccccc3OCC[C@@H]3CC[C@@H](NC(=O)CC(C)(C)C)[C@@H](CNC(=O)[C@@H]2C1)O3 | -2 | 0.23
53 | Cc1ccc(-n2nc(C)c(CC(=O)N[C@H]3C[C@@H](O)C3)c2C)cc1Cl | -4 | 0.56
54 | CCc1ccc(-c2nn(C)c(=O)c3c2CCCC3)cc1S(=O)(=O)N1CCCCCC1 | -10 | 1.53
55 | CN1C(=O)[C@@H](c2ccccc2)CC12CCN(Cc1ccsc1)CC2 | 4 | -0.76
56 | COc1cc(NC(=O)c2c(F)cccc2Cl)ccc1N1CCCCC1=O | -8 | 1.21
57 | CCc1cc(O)nc(CN(C)CCc2ccncc2)n1 | -1 | 0.1
58 | CC(C)(C)OC(=O)NCC(=O)Nc1ccc(Cl)c(F)c1 | -9 | 1.01
59 | C=CCn1c(C)c(CC(=O)Nc2ccccc2OCC)c(=O)n2nc(-c3ccc(C)cc3)nc12 | -1 | 0.06
60 | CC(C)OCc1noc(CN2CC(C)(C)C[C@H]2c2ccccc2)n1 | -12 | 1.64
61 | O=C(c1cccc([C@H]2CCCNC2)c1)N1CCc2ccccc2C1 | -2 | 0.33
62 | CN(CCN1CCCC1)S(=O)(=O)CCCNC(=O)OC(C)(C)C | -6 | 0.9
63 | CC(C)OC(=O)C[C@H]1CCCN(S(C)(=O)=O)C1 | 3 | -0.47

Row | SMILES | % Inhibition [%] | Z score
64 | O=C(O)[C@H](Cc1ccccc1)n1sc2ccccc2c1=O | -15 | 2.16
65 | O=C(C[C@@H]1CCN2C[C@@H]1/C=C\COc1ccccc1CNCC2=O)NCc1ccccn1 | -9 | 1.38
66 | COc1ccc(CNC(=O)CC(C)(C)C)cc1OC | 2 | -0.23
67 | CC(O)(CN1CCCC(CN2CCOCC2)C1)C(F)(F)F (stereo not drawn) | -1 | 0.1
68 | Cc1c(C#N)cccc1NC(=O)NC(C)[C@@H]1C[C@H](C(=O)O)C1(C)C (stereo partly drawn) | -7 | 1.03
69 | CS(=O)(=O)NCC(=O)N1CCCC1CC1CC2CCC1C2 (stereo not drawn) | -10 | 1.95
70 | CC(C)CCC(C(=O)NC(C)c1ccccc1)C(=O)NC(C)c1ccccc1 (stereo not drawn) | 3 | -0.31
71 | C[C@@]12CO[C@@H](COc3ccccc3)O[C@@H]1CC[C@]1(C)C2CC[C@@H](O)[C@H]1CC(=O)N1CCC[C@H]1CO (stereo partly drawn) | 36 | -4.08
72 | COc1ccc(-n2c(=O)[nH]c3cc(-c4nc(-c5ccccc5C)no4)ccc3c2=O)cc1 | 7 | -0.77
73 | O=C1N(CN2CCN(Cc3ccccc3)CC2)c2ccccc2C12OCCO2 | -4 | 0.58
74 | Cc1nn(C)c2nc(N3CCC4(CC3)CC(=O)NC(=O)C4)sc12 | -10 | 1.85
75 | Cc1nn(C)cc1C(=O)NCCc1c[nH]c2ccccc12 | -2 | 0.45
76 | CC(C)NC(=O)c1cc(F)cc(Br)c1 | -13 | 2.05
77 | CCCc1nc(C)cc(N2CCC(CC3CC3)(C(=O)O)CC2)n1 | -13 | 1.33
78 | Cn1cc(-c2nc([C@@H]3COCCN3C(=O)c3ccc4c(c3)CCCC4)no2)cn1 | -6 | 0.85
79 | CC(C)(C)C(=O)NCC[C@H](O)c1cccs1 | -3 | 0.4
80 | O=C(c1cnc(C2CC2)nc1)N1CCN2CCOc3cccc1c32 | 10 | -1.33
81 | CCC1=NO[C@@H](CN(C)CCc2scnc2C)C1 | -14 | 1.76
82 | COc1cccc(CN2C(=O)CC[C@@]2(C)C(=O)NC2CCCCC2)c1 | -6 | 0.69
83 | C[C@@H](C1CC1)N(C)S(=O)(=O)CCN1CCOC1=O | -15 | 1.84
84 | CCc1nc(C#N)c(NC[C@@H](c2ccsc2)N(C)C)o1 | -5 | 0.69
